From paper PMC2064240 (The Journal of Cell Biology, 2006)

Target: T1, GST-SV343-571 (bovine, UniProt O46385-2 343-571)
T1 sequence (looked up): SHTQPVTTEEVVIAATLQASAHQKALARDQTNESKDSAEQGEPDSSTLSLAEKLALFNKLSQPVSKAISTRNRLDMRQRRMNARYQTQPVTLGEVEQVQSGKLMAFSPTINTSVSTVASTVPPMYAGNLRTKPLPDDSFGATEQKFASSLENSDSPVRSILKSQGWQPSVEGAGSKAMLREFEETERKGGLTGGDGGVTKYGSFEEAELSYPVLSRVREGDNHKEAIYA
Experiment: pull-down

binding result: binds
B1: 6×His-tagged, full-length Tctex-1 (natural protein)
chain: not shown
